# Assay results from PubChem BioAssay AID894 (National Center for Advancing Translational Sciences (NCATS), 2007).
# The whole screen tested about 150,000 compounds, of which about 6,500 (4.3%) were called active. Inconclusive means that the source gave no clear call. Such entries were picked first, then a sample of the others. The call rests on the fitted dose curve; in most records, active means well fitted inhibition curve with a large enough effect (not every such curve was filed as active); inconclusive means small, poorly fitted or top-dose-only effect, or another doubt; inactive means no such curve, though single readings can be large or run the other way. No potency is given beside an inconclusive call; the fits are too rough.
# Biological target: 15-hydroxyprostaglandin dehydrogenase [NAD(+)] (Homo sapiens) (UniProt P15428)
# Sequence of UniProt P15428 (P15428 whole entry, looked up): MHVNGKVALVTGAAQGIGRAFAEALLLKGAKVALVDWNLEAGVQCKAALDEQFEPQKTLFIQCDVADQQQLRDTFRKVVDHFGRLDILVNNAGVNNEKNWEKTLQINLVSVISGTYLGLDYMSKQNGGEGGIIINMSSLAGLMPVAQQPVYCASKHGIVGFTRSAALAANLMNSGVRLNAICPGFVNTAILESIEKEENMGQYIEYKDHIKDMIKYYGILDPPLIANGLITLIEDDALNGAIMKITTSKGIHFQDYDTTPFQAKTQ
# Test: qHTS Assay for Inhibitors of HPGD (15-Hydroxyprostaglandin Dehydrogenase)
# Settings: purified HPGD, NADH fluorescence kinetic, PGE2 substrate; activity change, negative = inhibition: hits give low values
# Procedure, shortened: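 20 nM HPGD preincubated 15 min at room temperature with compound in 50 mM Tris-HCl pH 8, 0.01% Tween 20. Started with 1 mM NAD+ and 30 uM prostaglandin E2; NADH fluorescence (360/450 nm) read 5 times over 30-s intervals, last minus first.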
# On the % scale 0 is the no-effect control and ±100 the full control effect; potency means the concentration at half of the fitted maximal effect; tags describe the fitted curve by direction and shape.
SMILES,"activity change, negative = inhibition",Potency
COC(=O)C1=C(C)N(Cc2ccco2)C(=O)N[C@@H]1c1ccco1,inactive: -7.91%,
N#CCCn1c(=O)c(-c2ccccc2)nc2cnc(Oc3ccccc3)nc21,,"inconclusive [inhibitor, partial curve]"
Cc1ccccc1OCCNC(=O)CSc1ccc(C(F)(F)F)cc1[N+](=O)[O-],,active: 25.1 µM
C=CCOC(=O)C1=C(C)OC(N)=C(C#N)C1c1ccc2c(c1)OCO2 (configuration not stated),,"inconclusive [inhibitor, partial curve]"
COc1cc(C)c2c(=O)cc(-c3ccccc3)oc2c1,inactive: -23.2%,
Cc1ccc(C(=O)Nc2nc3ccccc3s2)s1,,"inconclusive [inhibitor, partial curve]"
CCCn1nc2cc(C(=O)NCc3ccc(C)cc3)ccc2c1OC,,"inconclusive [inhibitor, partial curve]"
CC1CN(c2nc3c(c(=O)n(Cc4ccc(Cl)c(Cl)c4)c(=O)n3C)n2C)CC(C)O1 (configuration not stated),,"inconclusive [inhibitor, partial curve, poor fit]"
O=C(Nc1nc2ccccc2n1Cc1ccc(Cl)cc1)c1ccco1,,"inconclusive [inhibitor, partial curve]"
OC(COCC(F)(F)C(F)(F)C(F)(F)C(F)F)Cn1c2ccccc2c2ccccc21 (configuration not stated),,"inconclusive [inhibitor, partial curve]"
COc1nccnc1NS(=O)(=O)c1ccc(N=Cc2c(C)[nH]n(-c3ccccc3)c2=O)cc1,,"inconclusive [inhibitor, partial curve]"
COc1ccc(C(=O)N(c2ccc(OC)cc2)S(=O)(=O)c2cccs2)cc1,inactive: -11.9%,
COc1cc(OC)cc(-c2ncc3ccccn23)c1,,"inconclusive [inhibitor, partial curve]"
Cn1c(-c2ccccc2)c(CCO)c2ccccc21,,"inconclusive [inhibitor, partial curve]"
COC(=O)C1C(=O)c2c([nH]c(C(=O)OC3CCCCCC3)c2C)CC1C (configuration not stated),inactive: -5.47%,
CCSc1ccccc1C(=O)NCc1ccco1,,active: 12.6 µM
Oc1c(C=NCc2ccncc2)sc2ccccc12,,"inconclusive [inhibitor, partial curve]"
O=C(CN(C(=O)c1ccc(Cl)cc1)C1CCCCC1)Nc1ccc(Cl)c([N+](=O)[O-])c1,inactive: -12.6%,
O=C(O)C1CCCCC1C(=O)Nc1cc(Cl)ccc1Cl (configuration not stated),inactive: -8.78%,
COc1ncc2ncc(=O)n(C)c2n1,inactive: -16%,
O=C(CO/N=C/c1ccccc1OC(F)F)NC1CCCCC1,,active: 25.1 µM
CCCCCCc1cc2cc(S(=O)(=O)c3ccc(Cl)cc3)c(=O)oc2cc1O,,"inconclusive [inhibitor, partial curve]"
COc1ccc(OC)c(-c2nnc(NC(=O)C(C)Sc3nncn3C)s2)c1 (configuration not stated),,"inconclusive [inhibitor, partial curve, poor fit]"
NC(=O)c1cc(-c2ccccc2)nc(N2CCCCCC2)n1,,"inconclusive [inhibitor, single point]"

SMILES,"activity change, negative = inhibition",Potency
NC(=O)Cc1c[nH]c2cccc(O)c12,inactive: -10.4%,
O=C(Nc1cccc(OC(F)(F)F)c1)c1ccc(Br)o1,,active: 25.1 µM
CCC(c1nnnn1C(C)(C)CC)N(CCCN1CCOCC1)Cc1cc2cccc(C)c2[nH]c1=O (configuration not stated),inactive: -2.15%,
Cc1cc(C)c(S(=O)(=O)/N=C2/C=C(Sc3ncn[nH]3)C(=O)c3ccccc32)cc1C,,active: 0.891 µM
Cc1ccc(-c2nnc3n2CCCCC3)cc1,,active: 5.01 µM
CCOC(=O)c1nn(-c2ccc(Cl)cc2)c2nc(CC)c(C#N)c(=O)n12,,"inconclusive [inhibitor, partial curve, poor fit]"
CC1CN(S(=O)(=O)c2cccc(-c3cn4ccccc4n3)c2)CC(C)O1 (configuration not stated),,"inconclusive [inhibitor, partial curve]"
Cc1ccc(-c2cc3nc(-c4ccccc4)cc(N)n3n2)cc1,,"inconclusive [inhibitor, partial curve]"
Cc1nnc(SCc2ccc(Cl)cc2Cl)[nH]c1=O,,active: 15.8 µM
O=C(Cc1ccccc1)NCCc1cccc(Cl)c1,,active: 10 µM
O=C(c1ccc(N2CCCC2=O)cc1)N1CCCCCC1,,active: 0.224 µM
NC(=O)c1c(NC(=O)COC(=O)CSc2nnc(-c3ccc(Cl)cc3)o2)sc2c1CCC2,,"inconclusive [inhibitor, partial curve]"
CS(=O)(=O)Nc1cccc(-c2nccc(-n3ccnc3)n2)c1,,active: 17.8 µM
CCc1ccc(-c2nc(C(N)=O)c3[nH]c(=O)n(-c4ccccc4OC)c3n2)cc1,,"inconclusive [inhibitor, partial curve]"
CC(C)Cn1c2c(c(O)c(C(=O)Nn3c(Cc4ccccc4)nc4ccccc4c3=O)c1=O)CCCC2,,"inconclusive [inhibitor, partial curve]"
N[C@@H](CSS(=O)(=O)O)C(=O)O,,active: 28.2 µM
CC(=O)C(C(C)=O)c1c(Cl)c(O)c(O)c2c(C(=O)c3ccccc3)coc12,,active: 3.16 µM
O=c1oc2cc(OCc3c(F)c(F)c(F)c(F)c3F)ccc2cc1-c1ccccn1,,"inconclusive [inhibitor, partial curve]"
COc1cc(C(=S)N2CCCC2)cc(Cl)c1OCC(=O)Nc1ccc(C)cc1C,,active: 7.94 µM
NNC(=O)c1cccc(COc2ccc3c(c2)CCC3)c1,,active: 20 µM
O=C(NC(=S)Nc1ccc(N2CCOCC2)c(Cl)c1)C(c1ccccc1)c1ccccc1,inactive: -17.8%,
CC(=O)Cc1nsc(NC(=O)c2ccc(-c3cc(C(F)(F)F)ccc3Cl)o2)n1,inactive: -16.4%,
Cc1nc(SCC(=O)Nc2cc(Cl)ccc2[N+](=O)[O-])nc(C)c1C,inactive: -20.2%,
CCC1CSC(Nc2ccc(C(=O)/C=C/c3ccc(Br)cc3)cc2)=N1 (configuration not stated),,"inconclusive [inhibitor, partial curve]"

SMILES,"activity change, negative = inhibition",Potency
CCc1nnc(NS(=O)(=O)c2ccc(N/C=C\C(=O)c3ccc4ccccc4c3)cc2)s1,,"inconclusive [inhibitor, partial curve]"
O=C(NC(=S)Nc1nc(-c2cccc3ccccc23)cs1)c1cc2ccccc2o1,inactive: -13.5%,
CCOc1cccc(NC(=O)CSc2nc(C)c3c(c2C#N)CCCC3)c1,,"inconclusive [inhibitor, partial curve]"
Cn1nc(-c2ccc(Cl)cc2)c2cc(C(=O)NCCN3CCOCC3)sc21,,"inconclusive [inhibitor, partial curve]"
Cc1cc2oc3c(c(=O)c2cc1C)C(c1ccc(C(C)C)cc1)N(CCCN1CCOCC1)C3=O (configuration not stated),inactive: -19.5%,
CCOC(=O)C(CC)/C(C)=N\NC(=O)c1ccccc1O (configuration not stated),,"inconclusive [inhibitor, partial curve]"
COc1ccc2c(c1OC)C(=O)OC2Nc1nc(-c2ccc(-c3ccccc3)cc2)cs1 (configuration not stated),,"inconclusive [inhibitor, single point]"
CCOC(=O)c1c(C)[nH]sc1=S,,"inconclusive [inhibitor, single point]"
COC(=O)c1ccc2c(=O)n(CCCN3CCCC3=O)c(=S)[nH]c2c1,,"inconclusive [inhibitor, single point]"
COc1ccccc1C(=O)Nc1cc2c(ccc3ccccc32)oc1=O,,"inconclusive [inhibitor, partial curve]"
N#Cc1ccc(CN2CCCC3(CCN(C(=O)c4cccc(F)c4)CC3)C2)cc1,inactive: -12.8%,
Cc1cccc(NC(=O)/C=C/c2ccc3c(c2)OCO3)n1,,"inconclusive [inhibitor, partial curve]"
CCc1nc2c(cnn2-c2ccc(F)cc2)c(=O)n1-c1ccc(N2CCC(C)CC2)cc1,,"inconclusive [inhibitor, single point]"
Fc1ccc(-c2nnc3sc(C4COc5ccccc5O4)nn23)cc1 (configuration not stated),,active: 28.2 µM
CCOC(=O)Cn1c(N)c(C(=O)OC)sc1=S,,"inconclusive [inhibitor, partial curve, poor fit]"
CC(=O)Oc1ccc(C(=O)Nc2cc(NC(=O)c3ccc(OC(C)=O)cc3)cc(C(=O)NC(C)(C)C)c2)cc1,inactive: -17.9%,
N#Cc1c(N)n(CCNC(=O)c2ccc(Cl)cc2)c2nc3ccccc3nc12,,"inconclusive [inhibitor, full curve]"
O=C(/C=C/Sc1ccccc1)c1ccccc1,,"inconclusive [inhibitor, partial curve]"
COc1cc2c(cc1NC(=O)CN(C)Cc1cccc(OC)c1OC)oc1ccccc12,,"inconclusive [inhibitor, partial curve]"
CN(C)Cc1ccccc1-c1cncnc1NCc1ccccc1,,"inconclusive [inhibitor, partial curve]"
CN(C)C(=O)c1ccc(-c2nc(N(C)C)c3ccccc3n2)cc1,,active: 0.316 µM
Clc1ccc(-c2cn3nc4c(nc3n2)CCCC4)cc1,,"inconclusive [inhibitor, full curve]"
CCCNC(=O)c1cc(-c2ccco2)on1,,"inconclusive [inhibitor, partial curve]"
COC(=O)c1cc2c(ccn2-c2ccc(F)cc2)n1Cc1cccc(OC)c1,,"inconclusive [inhibitor, single point]"
